# This is one part of the list.
# Tested on: PfAP2-HC AP2 domain (GST-tagged)
# Test: gcPBM binding intensity (ln(normalized median fluorescence intensity)); higher = stronger DNA binding
# Method in brief: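 The highest Masliner-normalised natural-log median intensity across replicate spots of either probe orientation is reported as binding intensity. GST-tagged P. falciparum DNA-binding domains expressed in E. coli were applied for 1 h to an Agilent 4 × 180k array of primer-extended double-stranded 36-bp intergenic genomic probes plus negative controls, and bound protein was detected with Alexa488 anti-GST antibody and scanned at 488 nm.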
row,Sequence,gcPBM binding intensity (ln)
1,GTTAATCACCATGTGGTGCATATAAGGGCATATTAT [GTGCAC_site9748],9.59
2,ATAAATTCATACATTTGTACACAAAAAAAAAAAAAA [XGTACX_site2435],9.47
3,CCTTATACGATATTATGTACGCATATGTGCATTTTT [XGTACX_site1570],9.83
4,ATATATATATATATATGTACGTATAATATATATATG [XGTACX_site2212],9.75
5,ATTATTCAGGTAAAGTGTACAGGAGAAAAATAAAAT [XGTACX_site334],9.99
6,CGCACCCAAATATATACACACATATATATATATATA [CACACA_site1651],9.81
7,ATTGTAAGGAAACACACACACATATATATGTATATA [CACACA_site676],10.2
8,TATATGTTTAATTTCACACACAAATATGCATTTTAA [CACACA_site7881],9.83
9,AAATAAATACTAGGCACACACACATATATATATATA [CACACA_site2079],11
10,ATTATTGTAATATTAGCACACATTACCTCACTACAA [CACACA_site2560],10
11,AAATTTGCTTTACCAGTGCAAAAAAAAAAAAAAAAA,9.3
12,AAATCACATAAAAATAGTACTTTTTTTTTTTTTTTT [XGTACX_site2696],9.47
13,TGTTTTTATCCTTATGGTACAGTATAATACTTACAG [XGTACX_site6381],9.65
14,GGAAAATGAAAACAAGGTACACATAAGAACAAACAA [XGTACX_site1221],10.4
15,AATAGGGTCATTCAAAAAAAAAAAAAATAATAATAC [CACACA_negctrl_site644],9.37
16,AATATAAAAATGTTTACACACACACGGAAATATATT [CACACA_site7226],10.3
17,TAAAATTAATAAAATATTTTCACTTAATATATATAA [CACACA_negctrl_site1550],9.44
18,ATGTTGTACAAACACACACACAAAAAAAAAATAAAA [CACACA_site2406],10.8
19,ATATATATATGTGGATGTACATATATCTCTTATTAT [XGTACX_site1748],9.81
20,AATTATTAAATATGTACACACGTACATTTTATAAAT [CACACA_site5341],9.71
21,AGTACATTATAGAATACACACCTATATATATATATA [CACACA_site4447],10.2
22,TATTTTGTTCTTTCCACACACAAATACATATATTGT [CACACA_site4071],10.3
23,TAATACATACACACATGTACATACAGAAATAAATAA [XGTACX_site3245],10.1

row,Sequence,gcPBM binding intensity (ln)
1,AAAAAGAAGAAGAAATGTACGTAACTATATATTTAT [XGTACX_site4362],9.69
2,TTTTACATAAATTATAAATATATAAAATAAAAAAAA [CACACA_negctrl_site1499],9.49
3,TTAATATTCCAGCTTTGTACATATATATATTATAAA [XGTACX_site7954],9.55
4,TGGCTTTCCCTGCCGGTGCATTAACATTTTTTACAT [GTGCAC_site9914],9.72
5,TTAATGGAAAAATAGGCACACACACCGATATACATA [CACACA_site8356],10.3
6,CATATATATATTTTTTGTACATATATTTTTACATAT [XGTACX_site8419],10.1
7,AATTCAATTGAGCAAAATTCAAATAAATTAAAAAGA [XGTACX_negctrl_site71],9.63
8,CAAAAATAATTTAGGTGTACAAATTTGACAAAAAAA [XGTACX_site188],9.79
9,ATGAAACACTCCATAGTGCAAAATATATATTATATT,9.72
10,CTATTTTTCCTGAAATGTACAAGAATTTTATTTGAT [XGTACX_site8867],9.49
11,TGATAATATTATATATGTACATATATGTATATTTTT [XGTACX_site7193],9.74
12,ATATGGGTGAACATATGTACATATATATATTGATAA [XGTACX_site8438],9.68
13,TTGGTATATTATAAAAGTACACATAATAAAAAATTT [XGTACX_site7985],9.57
14,CCTAAAGTGTAAAATTCACACACATATATATATATA [CACACA_site8385],9.89
15,TTTATTTATAGGTATACACACTTTAATTAAAAGTTG [CACACA_site7232],9.53
16,TTTATTTTTGAAGTTGCACACACAAAAATAAAAAGT [CACACA_site8030],9.76
17,ATTAAAAAAATATACGCACACAAAATGTAATAACAA [CACACA_site2439],10.1
18,TAATTTGTTATGTATTGTACAAATAATATATGATAT [XGTACX_site1985],9.6
19,TTTTGTTTAAAAAAAAAAAACAAAAAAAAGCAATTA [CACACA_negctrl_site314],9.38
20,TTACATAATTTATGTACACACGCAAATACTTATAAT [CACACA_site4331],9.76
21,ATTTTTCATTCTGGACATGTTACCATTATATATATG [CACACA_negctrl_site61],10
22,ATAACTATAATAATCATACACACCAAAGAGAATATT [CACACA_site6970],10.2
23,ATTATTACTTTTTGAGTGCACATACACACAGACATA,9.81

row,Sequence,gcPBM binding intensity (ln)
1,AGTAGTCTGGAGAAGAGTACACAGTATCTGGTAGCT [XGTACX_site2042],9.59
2,ACATTAACATTGTTGGTGCAAAATTAATATGTTTTT [GTGCAC_site9673],9.59
3,TTAAATATTTTTTATACACACATTTCTTATTTAACT [CACACA_site229],9.8
4,TAATTATTATTAATAGTACACACTATGGCATTTCAA [CACACA_site2488],9.63
5,CAAACATATTAATGTACACACACCCACCCACAAACA [CACACA_site2752],10.4
6,TTTTTTTCAATATTTGCACACGATTAAAATATTTAA [CACACA_site5266],9.63
7,TATTATATATATATATGTACATATTGTATGTTATAT [XGTACX_site5303],9.99
8,TATGTGAATATTGAGGTGCGGTTGTTAAAATTTATA [GTGCAC_site9915],9.76
9,TATATGTAATATTATACATGCATACATAATATATAT [TGCATGCA_site558],9.67
10,TTTTTTTTTTATAAGGCACACATGAATATTTATACA [CACACA_site1316],9.59
11,TATGTGAATATAATCACACACAATACGGAAAGAGAC [CACACA_site7311],11.2
12,ACCCACGTAAATTAAGCATGCCTTCCGTTATATTTA [TGCATGCA_site365],9.84
13,TTTTACTAAATATATACACACATTATGCATATATAT [CACACA_site3287],9.92
14,TTTTAAAGAAAAAAATGTACAAAATTTTTATTTTAA [XGTACX_site1496],9.02
15,AATGTGATAATATACACACACGCATATATATATATA [CACACA_site323],9.88
16,CTGTGTAATTTAAATTGTACGTTTGAAAAAAATAAA [XGTACX_site5667],9.51
17,AAAACACTTATGGATTGTACAATAAAAATTATATTA [XGTACX_site7042],9.92
18,TTCTGTGTGTATTGGCGTACAATTATTTTGCCTACA [XGTACX_site205],9.82
19,ACATTCACAAAATTTTGTACACATATATATATATAT [XGTACX_site3518],9.96
20,GTATTATCTGCTTTTTGTACACATATATTTAAAAAA [XGTACX_site7603],9.66
21,TTTATTTATTAAGAATGTACATGTATTTGTTAAATA [XGTACX_site4465],9.4
22,TAAATCATGGGATAAGCATGCGCGCACATGTTTGTT [TGCATGCA_site768],9.75
23,CGATTTTTTAAGTTTGTGCACTTAAAAACTATAACA,9.43

row,Sequence,gcPBM binding intensity (ln)
1,CCATTTGATAATAATGCACACCACATATATTTATAT [CACACA_site9002],9.93
2,AAAAGGAATTATAGGAAATAAATATATACAAATATA [TGCATGCA_negctrl_site528],9.68
3,TATACTATACAACACATACACACAAAAAAAAAAAAA [CACACA_site537],9.98
4,TATATGTCAATATCTACACACATATAGGTAATTATT [CACACA_site7475],10
5,TATTTCAAAATAAAATAAAATATATATATATGTATA [XGTACX_negctrl_site416],9.3
6,ATATAATATTGAGTTTGTACATATATATATGAAGAT [XGTACX_site4444],9.7
7,AATTATGCATTTGTCACACATATATATTACACTTGC [CACACA_site5324],9.91
8,AAAAAAAAAAAAAAATGTACATTATACACATTATAT [XGTACX_site6824],9.66
9,TAGCCAAAATATAATTTACACACTTATTAAATAATT [CACACA_site7963],9.5
10,ATTTTCCCTTGTTTTACACACGTGCTGATATGAGAT [CACACA_site2164],9.91
11,AAATAAATATATATATGTACATACAAATACACGGTA [XGTACX_site8510],9.86
12,AAGAAAAATGTCATATGATATCATATATTTTATAAT [TGCATGCA_negctrl_site296],9.57
13,TATATAAATAGACACACACACACATATAAATAAATA [CACACA_site7855],10.7
14,TTTCAATGCATAAAAGTGCGCAATAATTTAAAGATC,9.81
15,TATTTTATAAATACAAGTAAAATTAAATATATAATA [XGTACX_negctrl_site221],9.45
16,AGGAGGATATTACACAGTACCCAGGAAATCTACGGA [XGTACX_site4878],9.54
17,TTGTACTACAATCCTTTATTTATTTAAACCTGTATG [CACACA_negctrl_site428],9.51
18,ATAATATATATTAATACACACACACCGATATATATA [CACACA_site9261],10.4
19,GACCAATACTTTAAAAGTACAAACCTTATTTTATTT [XGTACX_site2718],9.77
20,AAAAAAAAATAAAATAAAATAAAATAAAATAATATA [CACACA_negctrl_site1798],9.59

# — the supplement of paper PMC11417369
